PubChem BioAssay AID588591 (National Center for Advancing Translational Sciences (NCATS), 2011)
Hit rate of the full screen: of about 390,000 compounds, about 4,700 (1.2%) were called active. Inconclusive results, whose numbers are uncertain, are shown with a selection of clear calls. Calls come from the whole dose curve; as a rule, active = well fitted inhibition curve with a large enough effect; inconclusive = small, poorly fitted or top-dose-only effect, or another doubt; inactive = no such curve, though single readings can be large or run the other way. Potencies of inconclusive entries are doubtful fits and often do not repeat.

Target: DNA polymerase eta (Homo sapiens) (UniProt Q9Y253)
Test: qHTS for Inhibitors of Polymerase Eta
Conditions: recombinant Pol eta, fluorescent DNA replication assay; series mostly up to 114 µM
How it was run: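 Pol eta at 10 nM preincubated with compounds 15 min at room temperature; reaction started with fluorescent substrate (50 nM final) and read kinetically at 0 and 10 min.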
Potency is the fitted concentration of half-maximal effect; tags give direction and shape of the fitted curve.

UniProt Q9Y253, sequence (Q9Y253 whole entry, looked up): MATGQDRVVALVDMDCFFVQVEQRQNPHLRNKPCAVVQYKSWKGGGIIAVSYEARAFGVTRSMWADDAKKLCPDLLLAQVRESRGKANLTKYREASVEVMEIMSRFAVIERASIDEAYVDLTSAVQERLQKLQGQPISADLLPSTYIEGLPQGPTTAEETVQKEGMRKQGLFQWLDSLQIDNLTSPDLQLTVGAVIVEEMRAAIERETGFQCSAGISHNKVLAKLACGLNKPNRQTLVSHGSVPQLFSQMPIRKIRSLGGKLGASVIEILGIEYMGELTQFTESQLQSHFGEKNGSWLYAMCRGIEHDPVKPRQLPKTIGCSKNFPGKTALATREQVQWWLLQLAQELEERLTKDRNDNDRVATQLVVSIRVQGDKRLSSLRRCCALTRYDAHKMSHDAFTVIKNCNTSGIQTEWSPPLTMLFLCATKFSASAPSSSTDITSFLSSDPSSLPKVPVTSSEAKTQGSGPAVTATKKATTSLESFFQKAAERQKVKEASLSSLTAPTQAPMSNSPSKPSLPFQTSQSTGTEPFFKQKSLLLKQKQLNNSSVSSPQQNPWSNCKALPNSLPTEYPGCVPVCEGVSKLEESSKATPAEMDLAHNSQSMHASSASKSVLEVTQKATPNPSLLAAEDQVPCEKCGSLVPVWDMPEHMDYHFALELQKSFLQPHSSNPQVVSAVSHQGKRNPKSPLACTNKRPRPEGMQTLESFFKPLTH

Row | SMILES | Potency
1 | Cc1cc(C)cc(C(=O)NC2C(=O)N3C(C(=O)O)=C(CSc4nnc(C)s4)CSC23)c1 (stereo not given) | inconclusive: 56.2 µM [inhibitor, partial curve, poor fit]
2 | CCS(=O)(=O)N1Cc2ccccc2CC1C(=O)N1CCN(c2ccccc2)CC1 (stereo not given) | active: 15.8 µM
3 | C=CCN1C(=O)/C(=C2/Sc3ccccc3N2C)SC1=Nc1c(C)n[nH]c1C | inconclusive: 31.6 µM [inhibitor, single point]
4 | CC1=C(C#N)C2C(/C1=N/O)C2(C)C (stereo not given) | inactive
5 | CN(c1ccc(C(=O)COC(=O)C2CC2)cc1)S(C)(=O)=O | inactive
6 | O=C(CN(c1ccc2c(c1)OCCO2)S(=O)(=O)c1ccccc1)NCc1ccc(Cl)cc1 | inconclusive: 89.1 µM [inhibitor, partial curve, poor fit]
7 | COc1ccc(Cn2ccn(CC(=O)Nc3cc(C)ccc3C)c(=O)c2=O)cc1 | inconclusive: 100 µM [inhibitor, single point]
8 | Cn1c(CNC(=O)CSc2nc(-c3ccccc3F)nc3cc(=O)[nH]n23)nc2ccccc21 | inconclusive: 100 µM [inhibitor, single point]
9 | Cn1cc(NC(=O)OCc2ccc(Cl)cc2)c(C(F)(F)F)n1 | inconclusive: 100 µM [inhibitor, partial curve, poor fit]
10 | Cn1c(=O)c2c(nc(SCC(=O)NCc3ccc4c(c3)OCO4)n2Cc2ccc(F)cc2)n(C)c1=O | inconclusive: 22.4 µM [inhibitor, full curve, poor fit]
11 | CC(=NNc1ccccc1)C(C)=NNc1ccccc1 | inactive
12 | O=C1CN(S(=O)(=O)c2cc(C(=O)O)ccc2Cl)c2ccccc2N1 | active: 50.1 µM
13 | Cc1ccc(CNC(=O)CN(C)S(=O)(=O)c2ccc(Br)s2)cc1 | inactive
14 | CCCCCn1c(=O)[nH]c2cc(C(=O)NCc3ccc(F)cc3)ccc2c1=O | inactive
15 | O=C(O)/C=C/C(=O)Nc1ccc(Cl)c(C(=O)O)c1 | active: 44.7 µM
16 | CC(OC(=O)c1ccc(-n2cnnn2)cc1)C(=O)Nc1ccccc1F (stereo not given) | inactive
17 | Cc1ccc(C)n1-c1ccc(N2CCOCC2)c(Br)c1 | inconclusive: 79.4 µM [inhibitor, partial curve, poor fit]
18 | Nc1nn(-c2ccccc2)nc1C(=O)OCc1ccccc1Br | inactive
19 | COc1ccc(C(=O)Oc2ccc(/C=N/NC(=O)c3ccccc3OC)cc2[N+](=O)[O-])cc1 | inactive
20 | Cc1csc(C(=O)O)c1-n1cccc1 | active: 17.8 µM
21 | Cc1cc2oc3ccc(NCCC4CCCN4C)cc3c(=O)c2cc1C (stereo not given) | inconclusive: 56.2 µM [inhibitor, partial curve, poor fit]
22 | COc1ccc(/C=C/C(=O)NC(=S)Nc2ccc(S(=O)(=O)Nc3ccc(OC)nn3)cc2)cc1 | active: 56.2 µM
23 | CC(C(=O)NCc1cccc(Br)c1)n1ncn2cccc2c1=O (stereo not given) | inactive
24 | COc1ccccc1OCC(=O)Nc1ccc(C(=O)Nc2ccccc2C(=O)O)cc1 | inactive

Row | SMILES | Potency
25 | COc1ccc(C(=O)OCC(=O)NCc2ccco2)cc1OC | active: 11.2 µM
26 | O=C1NC2(CCCCC2)C(=O)N1c1ccccc1 | inconclusive: 3.98 µM [inhibitor, partial curve, poor fit]
27 | NS(=O)(=O)c1ccc(N=Nc2c(O)c(C(=O)O)cc3ccccc23)cc1 | active: 39.8 µM
28 | Cc1ccc(C(=O)COC(=O)CNC(=O)c2ccco2)cc1 | inactive
29 | C[C@H](CO)N1C[C@H](C)[C@@H](CN(C)Cc2ccc(-c3ccccc3)cc2)Oc2c(NC(=O)c3ccncc3)cccc2C1=O | inactive
30 | CC(C)c1cc2c(c(O)c1O)[C@@]13CCCC(C)(C)C1CC2OC3=O (stereo not given in full) | inactive
31 | O=C(O)Cn1cc(/C=C/[N+](=O)[O-])c2ccccc21 | active: 44.7 µM
32 | CC(=O)c1cccc(NC(=O)C2CCCN2S(=O)(=O)c2cccs2)c1 (stereo not given) | inactive
33 | OC[C@H]1O[C@@](CO)(O[C@H]2O[C@H](CO)[C@@H](O)[C@H](O)[C@H]2O)[C@@H](O[C@H]2O[C@H](CO)[C@@H](O)[C@H](O)[C@H]2O)[C@@H]1O | inconclusive: 89.1 µM [inhibitor, single point]
34 | COc1ccc(S(=O)(=O)Cc2ccc(C(=O)N3CCN(c4cc(C)ccc4C)CC3)o2)cc1 | inconclusive: 20 µM [inhibitor, partial curve, poor fit]
35 | Cc1ccc(NC(=O)C2CCN(C(=O)c3cnn(-c4ccccc4)c3-n3cccc3)CC2)cc1 | inactive
36 | O=C(O)c1ccc(NC(CSCc2ccc(F)cc2)C(=O)O)c([N+](=O)[O-])c1 (stereo not given) | inactive
37 | CCC(Oc1ccc(C)cc1)C(=O)Nc1ccc(S(=O)(=O)Nc2nccs2)cc1 (stereo not given) | inactive
38 | Cc1ccc(CSC2=Nc3ccccc3C3=NC(CC(=O)NCc4ccco4)C(=O)N23)cc1 (stereo not given) | inconclusive: 89.1 µM [inhibitor, single point]
39 | O=C1/C(=C\c2ccc(-c3ccccc3[N+](=O)[O-])o2)C(c2ccccc2)=NN1c1ccccc1 | active: 50.1 µM
40 | CCCCCCN1C[C@@H](n2cc(C3CC3)nn2)[C@H](O)C[C@@H]1c1ccccc1 | inconclusive: 100 µM [inhibitor, partial curve, poor fit]
41 | O=C1CCCc2c1sc1nc3n(c(=O)c21)CCCCC3 | inactive
42 | COc1ccccc1CNC(=O)C1CCN(Cc2cc3ccccc3n2Cc2cccc(C)c2)CC1 | inactive
43 | Cc1cc(C(=O)COC(=O)CNS(=O)(=O)c2ccc3ccccc3c2)c(C)n1-c1ccccc1 | inconclusive: 0.316 µM [inhibitor, full curve, poor fit]
44 | COCCNC(=O)c1ccc(CS(=O)(=O)c2ccc(OC)cc2)o1 | inactive
45 | Cc1ccc(OCc2occc2C(=O)O)cc1 | inconclusive: 56.2 µM [inhibitor, partial curve, poor fit]
46 | CC(=O)c1cccn1S(=O)(=O)c1ccccc1 | inactive
47 | CCOC(=O)c1ccc(/C=C2/C=C(c3ccccc3)N(c3ccc(Cl)c(C(=O)O)c3)C2=O)cc1 | active: 20 µM
48 | COc1ccc(C(=O)NCC(=O)OCC(=O)NC2CCCC2)cc1 | inconclusive: 100 µM [inhibitor, single point]

Row | SMILES | Potency
49 | Cc1c([N+](=O)[O-])cc(S(=O)(=O)Nc2ccc(-c3ccc(N4CCCC4)nn3)cc2)cc1[N+](=O)[O-] | active: 17.8 µM
50 | Cc1ccc(/C=C2\S/C(=N/S(=O)(=O)c3cccs3)NC2=O)cc1 | active: 25.1 µM
51 | Cc1ccc(/C=N/c2sc3c(c2C#N)CCC3)o1 | inconclusive: 35.5 µM [inhibitor, partial curve, poor fit]
52 | COc1cc(OC)c(NC(=O)c2cn(C)c(=O)c3cc(OC)c(OC)cc23)cc1Cl | active: 56.2 µM
53 | COc1cc(OC)c(OC)cc1/C=C1\Oc2cc(OCC(=O)N3Cc4ccccc4C[C@H]3C(=O)O)ccc2C1=O | active: 22.4 µM
54 | Cn1nnnc1SCc1nc2scc(-c3ccc(Cl)cc3)c2c(=O)[nH]1 | inconclusive: 56.2 µM [inhibitor, partial curve, poor fit]
55 | CCOC(=O)Cc1cc(=O)n2[nH]c(-c3ccc(C)cc3)cc2n1 | inconclusive: 100 µM [inhibitor, single point]
56 | Cc1ccc(-c2nc3c(c(=O)[nH]c(=O)n3Cc3ccccc3)n2C)o1 | active: 11.2 µM
57 | CN(c1cccc(NC(=O)CN(c2cccc(Cl)c2)S(=O)(=O)c2ccccc2)c1)S(C)(=O)=O | inconclusive: 79.4 µM [inhibitor, partial curve, poor fit]
58 | O=C(CCCOc1ccc(Cl)cc1Cl)N/N=C/c1cccc([N+](=O)[O-])c1 | inconclusive: 20 µM [inhibitor, full curve, poor fit]
59 | COCCOc1ccc(C(F)(F)F)cc1NC(=O)CN1C(=O)NC2(CCc3ccccc32)C1=O (stereo not given) | inactive
60 | CCC(/C=C1\Oc2ccc(OC)cc2N1C)=C\c1sc2ccccc2[n+]1CCCS(=O)(=O)[O-] | inconclusive: 50.1 µM [inhibitor, partial curve]
61 | COc1ccc(-c2cc(C(=O)O)c3ccccc3n2)c(OC)c1 | inconclusive: 28.2 µM [inhibitor, partial curve, poor fit]
62 | CCS(=O)(=O)N1Cc2ccccc2CC1C(=O)N1CCN(c2cccc(C)c2C)CC1 (stereo not given) | inconclusive: 15.8 µM [inhibitor, partial curve, poor fit]
63 | C[C@H](CO)N1C[C@H](C)[C@@H](CN(C)S(=O)(=O)c2ccccc2)Oc2c(NC(=O)Nc3ccc(C(F)(F)F)cc3)cccc2C1=O | inconclusive: 25.1 µM [inhibitor, partial curve, poor fit]
64 | Cc1cc(C)cc(NC(=O)CSc2nnc(CNC(=O)c3c(F)cccc3Cl)o2)c1 | inactive
65 | Cn1c(-c2ccc3nc(N)sc3c2)nc2cc(N)ccc21 | inconclusive: 12.6 µM [inhibitor, full curve, poor fit]
66 | CCOC(=O)c1c(C)c(C(=O)NCCc2ccc(S(N)(=O)=O)cc2)c(C)n1CC | inconclusive: 31.6 µM [inhibitor, partial curve, poor fit]
67 | COc1cccc(-n2c(SCC(=O)NCCC3=CCCCC3)nc3n[nH]c(C)c3c2=N)c1 | inconclusive: 14.1 µM [inhibitor, full curve, poor fit]
68 | COc1cccc2cc(/C(C)=N/Nc3nc(-c4cc(C)ccc4C)cs3)c(=O)oc12 | active: 50.1 µM
69 | Cc1cc(C(F)F)n2nc(C(=O)Nc3sc4c(c3C(N)=O)CCC4)nc2n1 | active: 20 µM
70 | COc1cccc(C2C(C(=O)Nc3ccccc3)=C(C)N=c3s/c(=C/c4ccc(OCC(=O)O)cc4)c(=O)n32)c1 (stereo not given) | inconclusive: 28.2 µM [inhibitor, partial curve, poor fit]
